In PubChem BioAssay AID445 (National Center for Advancing Translational Sciences (NCATS), 2006):
About 40 (0.04%) of roughly 110,000 compounds were called active. Inconclusive results, whose numbers are uncertain, are shown with a selection of clear calls. Calls come from the whole dose curve; as a rule, active = well fitted curve in the direction sought with a large enough effect in the signal ratio (not every such curve was filed as active); inconclusive = small, poorly fitted or top-dose-only effect, or a change in a side signal; inactive = flat fitted curve, though single readings scatter; the % refers to the signal ratio. Potencies of inconclusive entries are doubtful fits and often do not repeat.

test: IkB Signaling; conditions: ABC-DLBCL IkBa-CBG/CBR dual luciferase ratio (green luciferase fused to IkBa over red control in OCI-Ly3 lymphoma cells), 4 h; IkBa stabilization activation: at 57.1 µM (top of the series), scaled: untreated 0%, proteasome inhibitor 100% unless noted;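 for IkBa stabilization activation: 0% = basal untreated cells and 100% = reference inhibitor full response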
Procedure, shortened: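 In this assay, an IκBα–CBG68 fusion accumulates when IKK-driven degradation is blocked; native CBR normalizes for cell number. OCI-Ly3 cells were treated 4 h with compound and doxycycline, then green and red light read after Chroma-Glo addition.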
Potency is the fitted concentration of half-maximal effect.

Row | SMILES | IkBa stabilization activation | Potency
1 | O=C(Nc1ccc(C(=O)N2CCOCC2)cc1)c1cccs1 | inactive | –
2 | CCOc1cc(S(=O)(=O)NCCc2c(C)[nH]c3ccc(C)cc23)ccc1F | inconclusive: 1.03% [signal inhibitor] | –
3 | COc1ccc2c(c1)c(CC(=O)Nc1cc(C)cc(C)c1)c(C)n2C(=O)c1ccc(Cl)cc1 | inconclusive: 7.81% [signal inhibitor] | –
4 | CCN(CC)C(=O)c1sc2c(c1C)c(=O)n(Cc1ccccc1)c(=O)n2Cc1cc(C)ccc1C | inconclusive: 2.55% [signal inhibitor] | –
5 | Cc1ccnc(NC(=O)Nc2cccc(F)c2)c1 | – | inconclusive: 12.6 µM [signal inhibitor, partial curve]
6 | c1ccc(-c2nc(NCc3cccnc3)c3oc4ccccc4c3n2)cc1 | inconclusive: -4.28% [signal inhibitor] | –
7 | Cc1cc(C)c2oc(C(=O)Nc3ccc(S(=O)(=O)Nc4ncccn4)cc3)cc(=O)c2c1 | inconclusive: 0.0483% [signal inhibitor] | –
8 | O=C(CCCn1ncn2c(cc3occc32)c1=O)NCc1ccccc1F | inconclusive: 1.85% [signal inhibitor] | –
9 | O=C(Nc1ccccc1C(F)(F)F)c1cc2nc(-c3ccccc3)cc(-c3ccccc3)n2n1 | inactive | –
10 | CCc1ccc2c(c1)NC(c1ccc(F)cc1)=NC(c1ccncc1)=N2 | inconclusive: 2.98% [signal inhibitor] | –
11 | CCOc1cccc(C(=O)Nc2ccc3oc(-c4ccncc4)nc3c2)c1 | inconclusive: 9.7% [signal inhibitor] | –
12 | COc1cc(OC)c(NS(=O)(=O)c2c(C)nc3sc(C)cn3c2=O)cc1Cl | inconclusive: -0.252% [signal inhibitor] | –
13 | Cc1ccc(-c2noc(-c3cccnc3NCc3ccco3)n2)cc1 | inconclusive: 1.24% [signal inhibitor] | –
14 | COc1ccc2c(CNC3CCCCCC3)c(C(=O)O)n(Cc3ccc(C)cc3)c2c1 | inconclusive: 1.8% [signal inhibitor] | –
15 | O=c1n(Cc2ccccc2Cl)c2sc3c(c2c2ncnn12)CCCC3 | inactive | –
16 | Cc1ccc(Cn2c(C)c3cnn(CC(=O)O)c(=O)c3c2C)cc1 | inactive | –
17 | O=C(Cn1cc(SCc2ccc(F)cc2)c2ccccc21)N1CCCCC1 | inconclusive: 4.76% [signal inhibitor] | –
18 | CCCSc1oc(-c2cccs2)nc1S(=O)(=O)c1ccc(C)cc1 | inconclusive: -0.526% [signal inhibitor] | –
19 | COc1ccc(NC(=O)Cn2c(=O)n(CCCCCC(=O)NCc3ccc4c(c3)OCO4)c(=O)c3sccc32)cc1Cl | inconclusive: 2.22% [signal inhibitor] | –
20 | CCOC(=O)c1c(C)oc2ccc(O)c(CN3CCCCC3)c12 | inactive | –
21 | O=C(Nc1cccc(C(=O)OCc2cc(=O)n3c4c(sc3n2)CCCC4)c1)c1ccc(Cl)cc1 | – | inconclusive: 3.98 µM [signal inhibitor]
22 | Cc1ccc(-c2nnn(CC(=O)Nc3cccc4cccnc34)n2)o1 | inconclusive: 4.59% [signal inhibitor] | –
23 | COc1ccc(Nc2ncc3c(n2)CCN(Cc2cccc(F)c2F)C3)c(OC)c1 | inconclusive: 0.0965% [signal inhibitor] | –

Row | SMILES | IkBa stabilization activation | Potency
24 | Cc1ccc2nc(-c3cccc(NC(=O)CSc4ccc(Cl)cc4)c3)oc2c1 | inactive | –
25 | Cn1c(CSc2ccccc2)c(C#N)c2ccccc21 | inactive | –
26 | CCOC(=O)c1c(-c2ccc(C)o2)csc1NC(=O)CSc1nnnn1-c1ccccc1 | – | inconclusive: 25.1 µM [rising, partial curve]
27 | Cc1ccc(C)c(NC(=O)c2cc(S(=O)(=O)N3CCN(c4cccc(Cl)c4)CC3)ccc2F)c1 | inconclusive: -1.65% [signal inhibitor] | –
28 | CCc1ccc(Nc2nc3c(S(=O)(=O)c4ccc(C)cc4)nnn3c3ccsc23)cc1 | inactive | –
29 | Cc1c(C(=O)N2CCc3ccccc3C2)sc2nc(-c3ccccc3)cn12 | inconclusive: 2.57% [signal inhibitor] | –
30 | C#CCNc1c(C)c(C)nc2ncnn12 | inconclusive: 4.21% [signal activator] | –
31 | O=C(Oc1ccccc1F)c1nc(SCc2ccccc2F)ncc1Cl | inactive | –
32 | COc1ccccc1NC(=O)Cn1nc2c3cc(F)ccc3n(Cc3cccc(C)c3)cc-2c1=O | inconclusive: 9.53% [signal inhibitor] | –
33 | CN(C)c1ncc2nc(-c3cccc(C#N)c3)c(=O)n(C[C@H]3CCCO3)c2n1 | inactive: -3.63% [at 11.4 µM, scaled: untreated 0%, proteasome inhibitor 100%] | –
34 | O=C(/C=C/c1ccccc1)Nc1nc2n(n1)C(c1ccc(Cl)cc1)C=C(c1ccccc1)N2 (centres undefined) | inconclusive: 3.62% [signal inhibitor] | –
35 | O=C(CN1C(=O)C2(SCC(=O)N2c2cccc(F)c2)c2ccccc21)NCc1ccccc1Cl (centres undefined) | inconclusive: 8.45% [signal inhibitor] | –
36 | CCc1nc2ccccc2n1CCCCOc1cccc(C)c1 | inconclusive: -1.99% [signal inhibitor] | –
37 | CCCOc1ccc(NC(=O)CC2C(=O)N(c3ccc(OC)cc3)C(=O)N2CCc2ccncc2)cc1 (centres undefined) | inconclusive: -0.865% [signal inhibitor] | –
38 | CCOC(=O)c1cc(-c2ccccc2)n(CCCC(=O)Nc2cccc(C)c2)c1C | inconclusive: 0.978% [signal inhibitor] | –
39 | COc1ccc(C(c2nnnn2Cc2cccs2)N2CCN(c3ccccc3F)CC2)cc1 (centres undefined) | inactive | –
40 | CC(C)(C)c1ccc(S(=O)(=O)c2cnc(SCC(=O)Nc3ccc4c(c3)OCCO4)[nH]c2=O)cc1 | inconclusive: 4.52% [signal inhibitor] | –
41 | CCn1ccc2cc(S(=O)(=O)N3CCC(C(=O)NCC(C)c4ccccc4)CC3)ccc21 (centres undefined) | inconclusive: -0.499% [signal inhibitor] | –
42 | COc1ccc(S(=O)(=O)Nc2cc(-c3cn4ccc(C)cc4n3)ccc2C)cc1OC | inconclusive: -2.17% [signal inhibitor] | –
43 | Cc1nnc2c3ccccc3nc(Nc3ccccc3C(=O)O)n12 | inconclusive: 0.194% [signal inhibitor] | –
44 | CCOc1ccc(OCC)c(N=c2oc3c(C)ncc(CO)c3cc2C(N)=O)c1 | inactive | –
45 | O=C(CSc1nnc(Nc2ccccc2F)s1)NCc1ccco1 | inconclusive: 3.6% [signal inhibitor] | –
46 | CNc1nc(-c2cccnc2)nc2ccccc12 | inactive: -2.12% [at 11.4 µM, scaled: untreated 0%, proteasome inhibitor 100%] | –

Row | SMILES | IkBa stabilization activation | Potency
47 | O=C(COc1ccc(Cl)cc1)Nc1ccc2nc(SCC(=O)N3CCOCC3)sc2c1 | – | inconclusive: 39.8 µM [signal inhibitor]
48 | Cc1ccc(-n2ncc(C(=O)NCc3ccccn3)c2C2CCN(C(=O)OC(C)(C)C)CC2)cc1C | inconclusive: 4.25% [signal inhibitor] | –
49 | Cc1ccc(NC(=O)c2ccco2)cc1C | inactive | –
50 | Cc1ccc(Cl)cc1NC(=O)c1nnn(Cc2ccccc2)c1N | inactive | –
51 | Cc1ccc(NC(=O)CSc2nc3ccccc3nc2Cc2ccccc2)c(Cl)c1 | inactive | –
52 | c1ccc(CCc2ccccc2-c2nc(-c3cccnc3)no2)cc1 | inactive | –
53 | O=C(Nc1ccc(C(F)(F)F)cc1)c1cc(S(=O)(=O)N2CCCc3ccccc32)ccc1F | – | inconclusive: 20 µM [signal inhibitor, partial curve]
54 | COC(=O)c1ccc(CSc2nnc3ccccn23)o1 | inactive | –
55 | COc1cc(Cl)c(C)cc1NC(=O)c1cc2c(=O)oc3ccccc3c2s1 | inconclusive: 0.731% [signal inhibitor] | –
56 | CCn1cc(C(=O)N2CCN(c3cc(Cl)ccc3C)CC2)c(=O)c2cc(S(=O)(=O)N3CCCC3)ccc21 | inconclusive: -4.24% [signal inhibitor] | –
57 | COc1cc2nc(SCC(=O)Nc3ccccc3C)n3nc(CCn4c(C)nc5ccccc54)nc3c2cc1OC | inactive | –
58 | Cc1ccc(C[C@H](Cc2nc3ccccc3[nH]2)c2nc3ccccc3[nH]2)cc1 | inactive: 2.11% [at 11.4 µM, scaled: untreated 0%, proteasome inhibitor 100%] | –
59 | Cc1nc2ccc(NC(=O)Nc3ccnc4cccnc34)cc2o1 | inconclusive: 1.17% [signal inhibitor] | –
60 | CCC(CC)C(=O)Nc1cccc(-c2nc3ccccc3o2)c1 | inactive | –
61 | Cc1cc(C(=O)N2CCN(c3cccc(Cl)c3)CC2)c2c(C)nn(-c3ccccc3Cl)c2n1 | inconclusive: -1.29% [signal inhibitor] | –
62 | CCCSc1ncc(Cl)c(C(=O)N(Cc2ccccc2)c2ccc(OC)cc2)n1 | inconclusive: -0.448% [signal inhibitor] | –
63 | O=C(CSc1nc2ccccc2s1)c1sc2sc3ccccc3[n+]2c1O | inactive: 0.754% [at 11.4 µM, scaled: untreated 0%, proteasome inhibitor 100%] | –
64 | NC(=O)C[C@H](N)C(N)=O | inactive: 0.949% [at 11.4 µM, scaled: untreated 0%, proteasome inhibitor 100%] | –
65 | COc1cc(C2NC(=O)NC(C)=C2C(=O)OC(C)(C)C)ccc1OCC(N)=O (centres undefined) | inactive | –
66 | Cn1ccc2c(OCC(=O)Nc3ccc(OC(F)(F)F)cc3)cccc2c1=O | inconclusive: 1.61% [signal inhibitor] | –
67 | CC(=O)c1ccc(NS(=O)(=O)c2ccc(Br)s2)cc1 | inconclusive: 14.6% [signal inhibitor] | –
68 | COc1cccc(N2CCN(C3=NS(=O)(=O)C(c4ccc(C)cc4)=C3C)CC2)c1 | inactive | –
69 | Cc1cc(C)cc(C(=O)NCCc2csc(-c3ccc(C(F)(F)F)cc3)n2)c1 | inconclusive: -1.88% [signal inhibitor] | –
